The results in this text go back to the supplement of paper PMC7125110.

To fix the notation:
B1: glmS ribozyme (parent)
chain: AUAAAAGCGCCAGAACUACAGAAAUGUAGUUGACGAGGAGGAGGUUUAUCGAAUUUUCGGCGGAUGCCUCCAAA

Holding throughout (conditions): with glucosamine-6-phosphate
Variants of B1 are the subject of series [1]. The series can be described thus: self-cleavage kobs at 640 uM GlcN6P; higher = faster cleavage; RNA array. The gist of the method:
(§1)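 kcat and KM were obtained from weighted Michaelis–Menten fits across concentrations of kobs values. Those came from one- or two-exponential decay fits to per-tile medians normalised to baseline and to non-cleaving reference variants. The variants were barcoded ribozymes transcribed in situ by E. coli RNA polymerase on sequenced MiSeq chips and tracked through a hybridised Cy3 probe at 37 °C, with 40 μM to 10 mM glucosamine-6-phosphate in HEPES/KCl/Mg(OAc)2 buffer flowed in.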

The variants in series [2] derive from B1. The series can be described thus: self-cleavage kobs at 2500 uM GlcN6P; higher = faster cleavage; RNA array. The gist of the method:
as §1

Variants of B1 are the subject of series [3]. The series can be described thus: self-cleavage kobs at 160 uM GlcN6P; higher = faster cleavage; RNA array. The method in brief:
as §1

The variants in series [4] derive from B1. Kind of series: self-cleavage kobs at 10000 uM GlcN6P; higher = faster cleavage; RNA array. The method in brief: as §1

± gives the standard error. This sample is rich in variants without activity.

For A12U G35C C70U, the “self-cleavage kobs at 640 uM GlcN6P” value in series [1] was less than 1e-05 s⁻¹. Moreover, in series [2], the “self-cleavage kobs at 2500 uM GlcN6P” value is less than 1e-05 s⁻¹.

Regarding A12C G51C, in series [1], the “self-cleavage kobs at 640 uM GlcN6P” value is less than 1e-05 s⁻¹. Also, the “self-cleavage kobs at 160 uM GlcN6P” value in series [3] is less than 1e-05 s⁻¹. In addition, in series [2], the “self-cleavage kobs at 2500 uM GlcN6P” value is less than 1e-05 s⁻¹. Moreover, the “self-cleavage kobs at 10000 uM GlcN6P” value in series [4] was less than 1e-05 s⁻¹.

As to A12C G32C U57C C58U, in series [1], the “self-cleavage kobs at 640 uM GlcN6P” value was less than 1e-05 s⁻¹. Further, the “self-cleavage kobs at 2500 uM GlcN6P” value in series [2] is less than 1e-05 s⁻¹.

Consider G13A A33G G44A G60A, for which, in series [1], the “self-cleavage kobs at 640 uM GlcN6P” value was less than 1e-05 s⁻¹. Besides, the “self-cleavage kobs at 10000 uM GlcN6P” value in series [4] was less than 1e-05 s⁻¹.

In the case of G13U A14G U49A, the “self-cleavage kobs at 640 uM GlcN6P” value in series [1] was less than 1e-05 s⁻¹.

As to C11U G29A, in series [1], the “self-cleavage kobs at 640 uM GlcN6P” value was found to be 9.17e-05 ± 1.1e-05 s⁻¹. For the same variant, the “self-cleavage kobs at 2500 uM GlcN6P” value in series [2] came to 0.000194 ± 3e-05 s⁻¹. Also, the “self-cleavage kobs at 10000 uM GlcN6P” value in series [4] amounted to 0.000474 ± 5.6e-05 s⁻¹.

For the variant A12G A53G, in series [1], the “self-cleavage kobs at 640 uM GlcN6P” value was determined as 0.000231 ± 3.1e-05 s⁻¹. For the same variant, the “self-cleavage kobs at 160 uM GlcN6P” value in series [3] worked out at 5.44e-05 ± 7.9e-06 s⁻¹. The “self-cleavage kobs at 2500 uM GlcN6P” value in series [2] came out at 0.000633 ± 7e-05 s⁻¹. The “self-cleavage kobs at 10000 uM GlcN6P” value in series [4] is 0.00114 ± 0.00015 s⁻¹.

Consider A12C U65G C67U, for which the “self-cleavage kobs at 640 uM GlcN6P” value in series [1] was 0.000474 ± 0.00016 s⁻¹.

With A12G U57A G60U, the “self-cleavage kobs at 640 uM GlcN6P” value in series [1] is less than 1e-05 s⁻¹. In addition, the “self-cleavage kobs at 2500 uM GlcN6P” value in series [2] was less than 1e-05 s⁻¹. Also, in series [4], the “self-cleavage kobs at 10000 uM GlcN6P” value is less than 1e-05 s⁻¹.

For G13U G51A, in series [1], the “self-cleavage kobs at 640 uM GlcN6P” value was less than 1e-05 s⁻¹. In addition, in series [2], the “self-cleavage kobs at 2500 uM GlcN6P” value is less than 1e-05 s⁻¹. Besides, the “self-cleavage kobs at 10000 uM GlcN6P” value in series [4] was less than 1e-05 s⁻¹.

As to A12C G13U A48G, in series [1], the “self-cleavage kobs at 640 uM GlcN6P” value was less than 1e-05 s⁻¹. Moreover, the “self-cleavage kobs at 2500 uM GlcN6P” value in series [2] is less than 1e-05 s⁻¹.

For C11U A12C U31G G32U U57G, the “self-cleavage kobs at 640 uM GlcN6P” value in series [1] was less than 1e-05 s⁻¹.

Take A12C G13A: in series [1], the “self-cleavage kobs at 640 uM GlcN6P” value is 6.42e-05 ± 1.2e-05 s⁻¹. In addition, the “self-cleavage kobs at 2500 uM GlcN6P” value in series [2] was 0.000302 ± 5.1e-05 s⁻¹. Moreover, in series [4], the “self-cleavage kobs at 10000 uM GlcN6P” value worked out at 0.00032 ± 5.7e-05 s⁻¹.

For G13A C16G A36C G41U A52U, the “self-cleavage kobs at 640 uM GlcN6P” value in series [1] is less than 1e-05 s⁻¹.

G13U G37C U56C C67A C71U: the “self-cleavage kobs at 640 uM GlcN6P” value in series [1] is less than 1e-05 s⁻¹.

With A14C G59A, the “self-cleavage kobs at 640 uM GlcN6P” value in series [1] is less than 1e-05 s⁻¹. Besides, in series [3], the “self-cleavage kobs at 160 uM GlcN6P” value was less than 1e-05 s⁻¹.

As for A14C C34A A53C G59A A64G, in series [1], the “self-cleavage kobs at 640 uM GlcN6P” value is less than 1e-05 s⁻¹.

Regarding A14C G29A G59A G60U C68U, the “self-cleavage kobs at 640 uM GlcN6P” value in series [1] is less than 1e-05 s⁻¹.

With A12U G37A G62U, the “self-cleavage kobs at 640 uM GlcN6P” value in series [1] was less than 1e-05 s⁻¹. In addition, the “self-cleavage kobs at 2500 uM GlcN6P” value in series [2] was less than 1e-05 s⁻¹.

For the variant A12G U54A, in series [1], the “self-cleavage kobs at 640 uM GlcN6P” value was found to be 0.000125 ± 2.3e-05 s⁻¹. Besides, in series [2], the “self-cleavage kobs at 2500 uM GlcN6P” value turned out to be 0.000221 ± 4.5e-05 s⁻¹. Besides, the “self-cleavage kobs at 10000 uM GlcN6P” value in series [4] was 0.000878 ± 0.00013 s⁻¹.

As for A12G A52C, the “self-cleavage kobs at 640 uM GlcN6P” value in series [1] is less than 1e-05 s⁻¹. Further, the “self-cleavage kobs at 160 uM GlcN6P” value in series [3] is less than 1e-05 s⁻¹. The “self-cleavage kobs at 10000 uM GlcN6P” value in series [4] is less than 1e-05 s⁻¹.

Take A12G G13U A48C: the “self-cleavage kobs at 640 uM GlcN6P” value in series [1] is less than 1e-05 s⁻¹. Further, the “self-cleavage kobs at 160 uM GlcN6P” value in series [3] was less than 1e-05 s⁻¹. In series [2], the “self-cleavage kobs at 2500 uM GlcN6P” value is less than 1e-05 s⁻¹.

With A12U A48C, the “self-cleavage kobs at 640 uM GlcN6P” value in series [1] was 0.000142 ± 2.1e-05 s⁻¹. For the same variant, the “self-cleavage kobs at 2500 uM GlcN6P” value in series [2] is 0.000341 ± 5.1e-05 s⁻¹.

For G13U A48C G59U G66U, the “self-cleavage kobs at 640 uM GlcN6P” value in series [1] is less than 1e-05 s⁻¹.

As to A12G U49A G63U, the “self-cleavage kobs at 640 uM GlcN6P” value in series [1] is less than 1e-05 s⁻¹. Moreover, in series [3], the “self-cleavage kobs at 160 uM GlcN6P” value is less than 1e-05 s⁻¹.

In the case of G13A G35C G59A G60U C68A, the “self-cleavage kobs at 640 uM GlcN6P” value in series [1] was less than 1e-05 s⁻¹. In addition, the “self-cleavage kobs at 2500 uM GlcN6P” value in series [2] is less than 1e-05 s⁻¹.
